Results as given in PubChem BioAssay AID463173 (ICCB-Longwood Screening Facility, Harvard Medical School, 2010).
Hit rate of the full screen: of about 52,000 compounds, about 1,700 (3.3%) were called active. Cut-off read from the data, not from the text of the source: active = survival mostly below about 52% (no sharp cut-off); inactive = mostly above about 56%. This is one part of the list.

test system: Wild type; assay: growth inhibition of S. aureus wild type versus tarO mutant, primary screen, teichoic acid synthesis inhibitors, RN4220, OD600 (AID 463173); conditions: S. aureus RN4220 wild type/DeltatarO growth, OD600, 18 h, active compounds read low, screened at 18.75 µg/mL (by protocol)

SMILES	survival
O=C(NCC(c1ccc2c(c1)OCO2)N1CCN(c2ccccc2)CC1)c1ccccc1 (centres undefined)	inactive: 66%
CC(C)Oc1ccc(C(=O)Nc2nc3c(s2)CC(C(C)(C)C)CC3)cc1 (centres undefined)	inactive: 113%
Cc1oc2ncn(CC(C)C)c(=O)c2c1C(=O)N(Cc1ccccc1)C(C)C	inactive: 67%
CN=C1S/C(=C\c2ccc(N3CCCC3)cc2)C(=O)N1C	inactive: 118%
Cc1ccc(Cn2c(C)c3cnn(CC(=O)N4CCN(c5ccc(F)cc5)CC4)c(=O)c3c2C)cc1	inactive: 100%
COc1cc(OC)c(NC(=O)c2cn(C)c(=O)c3cc(OC)c(OC)cc23)cc1Cl	inactive: 61%
O=C(/C=C/c1ccccc1)N1CCN(Cc2cc(=O)n3nc(-c4ccccc4Cl)sc3n2)CC1	inactive: 73%
O=C(CN1C(=O)C2(SCC(=O)N2c2ccc(Cl)cc2)c2ccccc21)NCCc1ccccc1 (centres undefined)	inactive: 74%
COc1ccc(Cl)cc1NS(=O)(=O)c1c(C)[nH]c(=O)[nH]c1=O	inactive: 83%
CCOc1ccccc1NC(=O)c1c(NC(=O)c2ccncc2)sc2c1CCC(C(C)(C)C)C2 (centres undefined)	inactive: 131%
Cc1ccc(O)c(NC(=O)CCSc2nc(-c3ccco3)cc(C(F)(F)F)n2)c1	inactive: 48%
CN(C)c1ccc(NC(=O)CSC2=Nc3ccccc3C3=NC(CC(=O)NCc4ccc5c(c4)OCO5)C(=O)N23)cc1 (centres undefined)	inactive: 124%
Cc1ccc(S(=O)(=O)Nc2c(C)nc3nc(C)[nH]n3c2=O)c(C)c1	inactive: 127%
Oc1ccc(NCc2ccccc2OCc2ccccc2Cl)cc1	inactive: 82%
COc1ccc(Cl)cc1NC(=O)c1c(NCc2cccs2)sc2c1CCCC2	inactive: 83%
Cc1cccc(-n2ncc(C(=O)Nc3ccc4c(c3)OCO4)c2C2CCN(C(=O)OC(C)(C)C)CC2)c1	inactive: 89%
Cc1ccc(NC(=O)Cn2cnc3c(oc4ccccc43)c2=O)cc1	inactive: 90%
CC(C)C1N(c2ccccc2)CCN1c1ccccc1	inactive: 110%
Cc1ccc(C(=O)c2oc3ccccc3c2NC(=O)COc2ccc(C(C)(C)C)cc2)cc1	inactive: 78%
Cc1ccc(COc2cccc3cc(-c4noc(-c5ccc(C)cc5)n4)c(=O)oc23)cc1	inactive: 91%
COC(=O)c1ccc(NC(=O)CSc2nc3c(c(=O)n(C)c(=O)n3C)n2Cc2ccccc2)cc1	inactive: 79%
COc1ccc(C(=O)NCc2nnc(SCC(=O)Nc3ccc(F)cc3)n2-c2ccccc2)cc1	inactive: 136%
Cc1cc(Nc2ccc(Cl)cc2)n2cnnc2n1	inactive: 83%
CC(=O)N1CCc2cc(S(=O)(=O)CCC(=O)N3CCN(c4ccccc4F)CC3)ccc21	inactive: 117%
